Experimental data from PMC4336329 (PLoS ONE, 2015).
The whole screen tested about 310,000 compounds, of which about 2,200 (0.71%) showed an effect of 50% or more. The effect is printed as a negative number. This is one part of the list.

Each compound was assayed against human ether-à-go-go-related gene (hERG) potassium channel (human, UniProt Q12809) (assay: primary screen, population patch clamp on CHO cells stably expressing hERG).
Sequence of human ether-à-go-go-related gene (hERG) potassium channel (Q12809 whole entry, looked up): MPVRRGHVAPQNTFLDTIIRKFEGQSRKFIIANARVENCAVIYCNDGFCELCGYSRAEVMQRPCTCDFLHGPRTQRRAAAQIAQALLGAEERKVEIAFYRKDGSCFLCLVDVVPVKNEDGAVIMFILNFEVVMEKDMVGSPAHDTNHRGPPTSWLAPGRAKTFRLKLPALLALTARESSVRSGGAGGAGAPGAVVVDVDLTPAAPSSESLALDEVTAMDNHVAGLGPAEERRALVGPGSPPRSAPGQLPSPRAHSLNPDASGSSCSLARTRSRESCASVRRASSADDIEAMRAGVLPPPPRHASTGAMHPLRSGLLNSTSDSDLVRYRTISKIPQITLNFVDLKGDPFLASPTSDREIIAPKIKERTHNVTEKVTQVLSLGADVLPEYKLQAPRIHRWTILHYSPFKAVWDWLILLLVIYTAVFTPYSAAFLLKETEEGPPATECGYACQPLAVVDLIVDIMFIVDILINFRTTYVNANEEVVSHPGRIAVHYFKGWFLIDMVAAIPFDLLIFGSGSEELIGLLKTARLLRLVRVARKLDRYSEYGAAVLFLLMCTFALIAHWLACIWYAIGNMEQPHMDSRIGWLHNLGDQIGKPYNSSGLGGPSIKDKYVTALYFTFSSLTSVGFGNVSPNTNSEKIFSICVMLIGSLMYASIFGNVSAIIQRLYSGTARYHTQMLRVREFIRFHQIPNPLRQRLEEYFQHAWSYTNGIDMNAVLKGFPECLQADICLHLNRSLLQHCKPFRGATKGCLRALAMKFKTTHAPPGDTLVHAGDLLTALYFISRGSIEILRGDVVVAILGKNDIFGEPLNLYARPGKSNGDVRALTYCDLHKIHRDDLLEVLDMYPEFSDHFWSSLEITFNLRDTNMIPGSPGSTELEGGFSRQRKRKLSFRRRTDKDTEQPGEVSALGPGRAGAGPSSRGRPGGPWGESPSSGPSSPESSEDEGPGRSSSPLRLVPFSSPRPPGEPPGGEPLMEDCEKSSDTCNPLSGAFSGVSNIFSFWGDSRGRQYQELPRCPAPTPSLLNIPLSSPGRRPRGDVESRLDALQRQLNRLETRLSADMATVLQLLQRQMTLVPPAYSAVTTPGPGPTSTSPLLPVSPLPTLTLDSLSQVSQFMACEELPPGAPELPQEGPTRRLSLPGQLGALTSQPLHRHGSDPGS

| Structure (SMILES) | hERG current change (%, negative = inhibition) at 1uM |
| --- | --- |
| CCOC(=O)c1cccc(NC(=O)CCCn2c(=O)c3cccn3c3cccnc32)c1 | 4.97% |
| Nc1cc(-c2nc3ncccc3o2)ccc1Cl | 3.93% |
| CCN1CCN(CC#CCOc2ccccc2OC)CC1.O=C(O)C(=O)O | 3.3% |
| COCC(=O)Nc1nnc(-c2cccs2)s1 | 11.5% |
| COc1ccc(-c2cc3ccc(O)cc3oc2=O)cc1OC | 15.5% |
| COc1cccc(OCC(O)CNC(C)c2ccccc2)c1.Cl (centres unmarked) | 7.69% |
| Cc1ccc(NC(=O)CSCC(=O)N(C)CC(=O)Nc2cccc3ccccc23)cc1 | -1.2% |
| CCN(Cc1ccc(OC)c(F)c1)C(C)C(=O)Nc1ccc(S(=O)(=O)N2CCCC2)cc1 (centres unmarked) | 1.92% |
| Cc1ccc(SCC(=O)NCCCc2ccccc2)cc1 | 6.73% |
| CCCOc1ccc(C(=O)Nc2ccc(S(=O)(=O)Nc3cc(C)nc(C)n3)cc2)cc1 | 11.5% |
| NC(=O)SC/C(=N\S(=O)(=O)c1ccccc1)Nc1ccccc1 | 9.22% |
| CC(C)C(=O)Nc1ccc2oc(-c3cc(F)c(F)cc3Cl)nc2c1 | 4.16% |
| c1cc2nnnn2nc1N1CCCCCC1 | 2.99% |
| C#CC[N+]1(CC#Cc2ccc(C#CC[N+]3(CC#C)CCOCC3)cc2)CCOCC1.[Br-] | 8.21% |
| CCOc1ccc(Cn2c3ccc(OC)cc3c3nc4ccccc4nc32)cc1OC | 12.3% |
| Cc1ccc(NC(=O)c2cnn(-c3ccccc3)c2NC(=O)c2ccco2)cc1C | 14.6% |
| C#CCOCCOCCOCCNc1nc(N2CCN(C(=O)[C@H](CCCCN)n3cc([C@@H](N)C(C)CC)nn3)CC2)nc(N2CCN(C(=O)[C@H](Cc3cc4ccccc4[nH]3)n3cc([C@@H](N)CC(C)C)nn3)CC2)n1.Cl (some centres unmarked) | 14.1% |
| COc1cc(C=O)ccc1Oc1nnnn1-c1ccc(C(N)=O)cc1 | -6.2% |
| COc1ccccc1OCC(=O)NNC(=O)Nc1ccccc1 | 15.3% |

| Structure (SMILES) | hERG current change (%, negative = inhibition) at 1uM |
| --- | --- |
| CC1CCC(NC(=O)CN2C(=O)c3cccnc3Oc3ccc(Cl)cc32)CC1 (centres unmarked) | 5.38% |
| Cn1ncc2c(Nc3ccc(O)cc3)nc(Cl)nc21 | 3.7% |
| COc1ccccc1CNC(=O)C1CCN(S(=O)(=O)c2ccc3c(c2)CC(C)N3C(C)=O)CC1 (centres unmarked) | 21.4% |
| COc1cccc(NC(=O)N2CCN(c3cccc(C)c3C)CC2)c1 | 2.4% |
| CC(=O)Nc1cccc(NC(=O)c2ccc3c(c2)CCN3S(=O)(=O)c2ccccc2)c1 | 9.95% |
| CC(=O)CC(C)=NCCN=C(C)CC(C)=O | -1.16% |
| COc1cccc(C(=O)N2CCCC(c3nc(-c4cccs4)no3)C2)c1 (centres unmarked) | 0.448% |
| CN(C)c1ccc(NS(=O)(=O)c2ccc(-c3csnn3)cc2)cc1 | 15.9% |
| O=C(COc1ccc2c3c(c(=O)oc2c1)CCCC3)NCC(O)c1ccccc1 (centres unmarked) | 8.88% |
| COc1cc(NC(=O)C(C)C)ccc1NC(=O)c1ccco1 | 11% |
| COc1cc(/C=C2\SC(=S)N(CCC(=O)NC3CCCC3)C2=O)cc(OC)c1OC | 4.62% |
| CC(/C=N/NC(=O)c1cc(C2CC2)[nH]n1)=C\c1ccccc1 | 12.6% |
| COC(=O)c1cc2sccc2n1CC(=O)Nc1cc(OC)cc(OC)c1 | 17.5% |
| Cc1ccc2[nH]c(=O)c(C(c3nnnn3CC3CCCO3)N3CCOCC3)cc2c1 (centres unmarked) | 10.6% |
| CCOc1ccc(/C=N/NC(=O)c2c(-c3ccccc3)noc2C)cc1 | 1.65% |
| CC(C(=O)NNS(=O)(=O)c1cccc(C(F)(F)F)c1)n1nnc(N2CCOCC2)n1 (centres unmarked) | -4.41% |
| Cc1cc(C)n(-c2ccc(Cl)c(Cl)c2)n1 | 8.93% |
| Cc1occc1-c1nnc(SCC(=O)c2ccc(F)cc2)n1Cc1ccco1 | -7.47% |
| C=CCNc1nc(Nc2ccc(OC)cc2OC)nc(OCC)n1 | 3.28% |

| Structure (SMILES) | hERG current change (%, negative = inhibition) at 1uM |
| --- | --- |
| CC(=O)Nc1cccc(NC(=S)Nc2cccc(Cl)c2Cl)c1 | 12.2% |
| O=C(NCCc1csc(-c2ccc(Cl)cc2)n1)c1ccco1 | 4.34% |
| CNC(=O)c1c(N)sc2c1CCCCC2 | 2.02% |
| O=C(Nc1cccc(F)c1)NC1CCCCCCC1 | 16.3% |
| CCS(=O)(=O)c1ccc2c(c1)N(S(=O)(=O)c1ccccc1)CC(C(=O)O)O2 (centres unmarked) | 1.48% |
| COc1cc(O)sc1C=Nc1ccc(Cl)cc1 | 6.9% |
| COc1ccc(NC(=O)CSCC(=O)NCc2ccco2)cc1 | -0.79% |
| CCNc1nc2c(c(=O)[nH]c(=O)n2C)n1CCCc1ccccc1 | 11.5% |
| CCOc1ccccc1NC(=O)CN1C(=O)COc2ccccc21 | 8.85% |
| CCOc1ccc(/C=N/NC(=O)c2nnn(-c3nonc3N)c2CN(C)C2CCCCC2)cc1 | 1.52% |
| Cc1cc(/C=N/NC(N)=S)c(C)n1-c1cccc(Cl)c1 | -1.59% |
| CC(NC(=O)c1ccccc1NC(=O)CSc1nnnn1C)c1ccccc1 (centres unmarked) | 3.34% |
| COc1ccc(OC)c(-n2c(C)cc(C=O)c2C)c1 | 14% |
| Cc1ccc(C)c(-n2c(SCC(=O)N3CCC(C(=O)O)CC3)nnc2-c2cccc(Cl)c2)c1 | 22.2% |
| Cc1c(CN2CCN(CC(C)(C)C)C(CCO)C2)[nH]c2ccccc12 (centres unmarked) | 16.1% |
| N#Cc1ccc(-c2csc(NC(=O)/C=C/c3cccs3)n2)cc1 | 15% |
| CN(c1ccccc1)S(=O)(=O)c1cccc(C(=O)NCCc2ccc(O)c(O)c2)c1 | -4.6% |
| Cc1ccc(NC(=O)c2nn(C34CC5CC(CC(C5)C3)C4)cc2[N+](=O)[O-])cc1 | -2.47% |
